According to the supplement of paper PMC6206098:
± gives the uncertainty stated by the source. Shown are siRNA guide strands that differ only in the seed, positions 2 to 7.

Legend:
3LL = experiment: cell viability relative to siNT1 control; higher = less toxic; conditions: concentration: 10 nM; 96 h; Mus musculus;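 also: Luminescence-based viability of cells reverse transfected in 384-well plates with lipid-complexed siRNAs built on a non-toxic 19mer backbone whose passenger strand carries 2′-O-methyl groups at positions 1 and 2, triplicates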
H460 = experiment: cell viability relative to lipid-only control; HeyA8 human ovarian and H460 human lung cancer; M565 mouse liver and 3LL mouse lung cancer; siNT1 is a non-toxic control siRNA; higher = less toxic; conditions: concentration: 10 nM; 96 h; Homo sapiens
HeyA8 = experiment: as above; conditions: concentration: 10 nM; 96 h; Homo sapiens
M565 = experiment: as above; conditions: concentration: 10 nM; 96 h; Mus musculus
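For cell viability relative to lipid-only control in this document: reverse lipid transfection in 384-well plates, in triplicate, of duplexes on a non-toxic 19mer backbone with passenger strand 2′-O-methylated at positions 1 and 2, luminescence viability read-out.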

| Sequence | cell viability (3LL) [%] | cell viability (H460) [%] | cell viability (HeyA8) [%] | cell viability (M565) [%] |
| --- | --- | --- | --- | --- |
| UGCUCGUACAUGUAAACCAAA | 54.4 ± 1.7 | 53.6 ± 2.6 | 26.4 ± 2.7 | 50.9 ± 1.3 |
| UUCGACUACAUGUAAACCAAA | 90.1 ± 13 | 61.8 ± 1.1 | 83.7 ± 14 | 85 ± 4.6 |
| UAUUCCCACAUGUAAACCAAA | 22.3 ± 5.7 | 64.4 ± 7.7 | 50.3 ± 1.6 | 27.6 ± 1.2 |
| UUCGAGCACAUGUAAACCAAA | 66.7 ± 17 | 39.6 ± 4 | 14.6 ± 0.48 | 64.6 ± 6.4 |
| UAAUCUGACAUGUAAACCAAA | 112 ± 5.2 | 85.2 ± 12 | 96.2 ± 11 | 77.4 ± 7.5 |
| UCGGUAAACAUGUAAACCAAA | 93.3 ± 15 | 83.7 ± 10 | 93.3 ± 3.8 | 83.7 ± 15 |
| UGGCGUUACAUGUAAACCAAA | 78.3 ± 5.5 | 55.5 ± 4.8 | 18.7 ± 2 | 60.6 ± 15 |
| UAAAUCAACAUGUAAACCAAA | 117 ± 7.4 | 88.4 ± 14 | 103 ± 4.7 | 89.9 ± 14 |
| UACCGCUACAUGUAAACCAAA | 74.1 ± 6.1 | 77.8 ± 23 | 76.1 ± 8.2 | 33.5 ± 6.8 |
| UGACGCUACAUGUAAACCAAA | 78.3 ± 12 | 52.9 ± 11 | 95.2 ± 7.4 | 80 ± 24 |
| UUUGAGGACAUGUAAACCAAA | 88.5 ± 14 | 68.4 ± 4.2 | 59.6 ± 3.7 | 42.4 ± 2.6 |
| UGACCAGACAUGUAAACCAAA | 16.1 ± 3.2 | 28.1 ± 3.4 | 28.7 ± 3.7 | 6.74 ± 0.59 |
| UAAUCGAACAUGUAAACCAAA | 108 ± 3.9 | 68.2 ± 6 | 94.5 ± 4.7 | 94.8 ± 17 |
| UCAGGCAACAUGUAAACCAAA | 89.8 ± 15 | 65.7 ± 18 | 83.5 ± 6.7 | 45.4 ± 4.1 |
| UUCCAAAACAUGUAAACCAAA | 109 ± 19 | 77.4 ± 12 | 96.6 ± 11 | 99.5 ± 6.9 |
| UAUGGAUACAUGUAAACCAAA | 48.8 ± 3.1 | 88.4 ± 14 | 85.2 ± 8.8 | 42.9 ± 15 |
| UAACAGUACAUGUAAACCAAA | 68.7 ± 7.2 | 63.7 ± 4.7 | 40.7 ± 12 | 57.1 ± 3 |
| UUCGUCCACAUGUAAACCAAA | 30 ± 10 | 47.7 ± 3 | 39.4 ± 5.4 | 51.9 ± 5.7 |
| UCGAGCGACAUGUAAACCAAA | 90.1 ± 22 | 77.6 ± 25 | 83.2 ± 5.1 | 75.5 ± 6.3 |
| UCCCAUUACAUGUAAACCAAA | 106 ± 30 | 42.9 ± 8.5 | 80.6 ± 8.4 | 65.4 ± 15 |

| Sequence | cell viability (3LL) [%] | cell viability (H460) [%] | cell viability (HeyA8) [%] | cell viability (M565) [%] |
| --- | --- | --- | --- | --- |
| UGGAAGCACAUGUAAACCAAA | 16.5 ± 1.8 | 44 ± 7.4 | 24.5 ± 3 | 8.72 ± 5.5 |
| UGAGUCAACAUGUAAACCAAA | 98.5 ± 18 | 75 ± 2.3 | 71.9 ± 7.9 | 31.3 ± 6.3 |
| UCGAUGAACAUGUAAACCAAA | 86.8 ± 18 | 53.7 ± 5.1 | 85.3 ± 1 | 63.4 ± 3.1 |
| UCGUUCCACAUGUAAACCAAA | 39.3 ± 5.9 | 31.2 ± 2.4 | 6 ± 0.91 | 15.1 ± 2.2 |
| UGCUUAGACAUGUAAACCAAA | 66.1 ± 4.8 | 92.8 ± 19 | 26.9 ± 2.8 | 54.6 ± 1.7 |
| UACGAUUACAUGUAAACCAAA | 93.5 ± 14 | 73.6 ± 8.2 | 84.8 ± 8.4 | 72.4 ± 8.5 |
| UUGAACUACAUGUAAACCAAA | 38.7 ± 3.4 | 61.1 ± 5.9 | 60.2 ± 6 | 44.5 ± 4.1 |
| UGCUAGAACAUGUAAACCAAA | 89.4 ± 6.4 | 66.2 ± 13 | 70.7 ± 6.9 | 87.6 ± 2.5 |
| UCCCAUGACAUGUAAACCAAA | 101 ± 23 | 41.8 ± 7.7 | 86.6 ± 1.6 | 58.6 ± 9 |
| UGCUGUCACAUGUAAACCAAA | 18.6 ± 4.2 | 62.3 ± 4.4 | 17.1 ± 2.3 | 23.2 ± 7.3 |
| UCUAGCAACAUGUAAACCAAA | 101 ± 9.9 | 58.3 ± 2.4 | 84.7 ± 5.2 | 63.9 ± 12 |
| UCUAUAUACAUGUAAACCAAA | 91.5 ± 11 | 53.7 ± 2.6 | 75.4 ± 5 | 60.8 ± 12 |
| UCCGUGGACAUGUAAACCAAA | 95.7 ± 7.5 | 31.6 ± 3.7 | 59.3 ± 11 | 21.5 ± 8.3 |
| UCUCCCGACAUGUAAACCAAA | 94.3 ± 10 | 54 ± 4.5 | 87.9 ± 6 | 74.9 ± 18 |
| UGUUACAACAUGUAAACCAAA | 89.6 ± 4.4 | 56.7 ± 3.1 | 44 ± 7.3 | 58.9 ± 11 |
| UUAAUGGACAUGUAAACCAAA | 31.6 ± 1.6 | 58.1 ± 6.2 | 77.3 ± 7.9 | 16.2 ± 3.3 |
| UACGCUCACAUGUAAACCAAA | 17.1 ± 7.9 | 64.6 ± 8.7 | 74.9 ± 5.8 | 68.8 ± 20 |
| UAACAAAACAUGUAAACCAAA | 91.5 ± 8.4 | 60.8 ± 1 | 104 ± 6.9 | 86.8 ± 20 |
| UCGGGGUACAUGUAAACCAAA | 36.1 ± 12 | 20.4 ± 2.2 | 6.21 ± 1.2 | 28.8 ± 4.2 |
| UAAGUGUACAUGUAAACCAAA | 52.3 ± 5.4 | 62.4 ± 8.8 | 67.5 ± 10 | 31.9 ± 2.8 |

| Sequence | cell viability (3LL) [%] | cell viability (H460) [%] | cell viability (HeyA8) [%] | cell viability (M565) [%] |
| --- | --- | --- | --- | --- |
| UUCUUAGACAUGUAAACCAAA | 88.8 ± 8.4 | 77.8 ± 12 | 101 ± 10 | 78.5 ± 20 |
| UAGUGGUACAUGUAAACCAAA | 6.34 ± 0.57 | 58 ± 5.4 | 37.5 ± 2.1 | 80.7 ± 11 |
| UGAUUCCACAUGUAAACCAAA | 36.5 ± 8.6 | 27.7 ± 2.7 | 15.3 ± 1.8 | 22.2 ± 2.7 |
| UAAAGUGACAUGUAAACCAAA | 109 ± 9 | 79.7 ± 17 | 98 ± 8.1 | 101 ± 32 |
| UAUUUAUACAUGUAAACCAAA | 107 ± 16 | 81 ± 6.2 | 95.1 ± 10 | 82.1 ± 10 |
| UUAUGGAACAUGUAAACCAAA | 72.9 ± 3.7 | 53.2 ± 6.7 | 44.7 ± 3.8 | 25.9 ± 5.7 |
| UGGCAACACAUGUAAACCAAA | 32.1 ± 2.9 | 54.3 ± 3.3 | 50.21 ± 0.33 | 22.2 ± 3.4 |
| UUCCCGAACAUGUAAACCAAA | 98 ± 21 | 85.9 ± 8.2 | 100 ± 8.2 | 88.1 ± 7.6 |
| UCUCCGUACAUGUAAACCAAA | 91.8 ± 16 | 58.1 ± 3.6 | 90.7 ± 13 | 45.7 ± 6.7 |
| UCCCGGAACAUGUAAACCAAA | 99.8 ± 17 | 93.1 ± 19 | 76.3 ± 16 | 68 ± 15 |
| UAGCUAAACAUGUAAACCAAA | 83 ± 6.9 | 68.3 ± 13 | 83.05 ± 0.52 | 54.6 ± 8.7 |
| UUAUCUGACAUGUAAACCAAA | 88.5 ± 10 | 84.5 ± 3.6 | 95.8 ± 6.9 | 91.8 ± 12 |
| UAUCAAGACAUGUAAACCAAA | 103 ± 5.6 | 56.6 ± 9.5 | 99.5 ± 5 | 75.5 ± 12 |
| UCGUAAUACAUGUAAACCAAA | 90.7 ± 16 | 79.9 ± 14 | 80.7 ± 3.3 | 82.6 ± 6.5 |
| UCACCACACAUGUAAACCAAA | 68.4 ± 17 | 54 ± 0.73 | 59.5 ± 4.7 | 15.6 ± 4.1 |
| UGGCAGAACAUGUAAACCAAA | 34.5 ± 9.1 | 26.5 ± 4.1 | 9.22 ± 1.8 | 14.1 ± 4.3 |
| UUUAUUCACAUGUAAACCAAA | 84.1 ± 4.4 | 61.2 ± 9.7 | 78.5 ± 3.4 | 56.2 ± 3.2 |
| UGCGCACACAUGUAAACCAAA | 55.8 ± 2.5 | 59.8 ± 4.3 | 58.6 ± 6.4 | 54.6 ± 1.6 |
| UGAUUCUACAUGUAAACCAAA | 5.37 ± 1.7 | 49.6 ± 6.9 | 37 ± 0.64 | 10.1 ± 0.59 |
| UAGGCAUACAUGUAAACCAAA | 23 ± 8 | 54.3 ± 4.9 | 18.6 ± 2.9 | 4.6 ± 0.94 |
